Measured values as given in the supplement of paper PMC4967469.
pIC50: −log10 of the molar value. A lower IC50 marks a more sensitive line; a limit (>, <) means that the fit lies beyond the doses tested. For AUC the same curve is integrated over the 256-fold range of doses and scaled to a fraction; the more sensitive the line, the further below 1. For part of these data: A top dose marked as inferred was derived from the fitted curves, not read from the paper. For part of these data: Where an entry number is given, a second screen of the drug exists; the two often differ.

How the values were obtained:
Experiment in all cases: Viability of human cancer cell lines after 72 h of drug (GDSC screen)
[1] = compound: CC(=O)O[C@@]12CO[C@@H]1C[C@H](O)[C@@]1(C)C(=O)[C@H](O)C3=C(C)[C@@H](OC(=O)[C@H](O)[C@@H](NC(=O)OC(C)(C)C)c4ccccc4)C[C@@](O)([C@@H](OC(=O)c4ccccc4)[C@H]21)C3(C)C [Docetaxel]; details: top dose 0.0125 µM
Protocol: (§1)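 Human cancer cell lines in 384-well plates, medium with 10% serum, drug for 72 h over a 256-fold dose range (nine 2-fold or five 4-fold steps up to the top dose). Adherent lines were fixed and stained with the nucleic acid dye Syto60, suspension lines read with resazurin; signal relative to control wells, capped at 0 and 100%. One two-parameter sigmoid per drug and line, fitted in a mixed model over all curves with the slope shared within a line.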

[2] = compound: COCC[n+]1c2c(n(Cc3cnccn3)c1C)C(=O)c1ccccc1C2=O [YM155]; details: top dose 5.12 µM
Protocol: as §1

[3] = compound: CN1CCN(c2ccc([N+](=O)[O-])c3no[n+]([O-])c23)CC1 [NSC-207895]; details: top dose 20 µM; top dose inferred
Protocol: as §1

[4] = compound: C[C@]1(O)C[C@@H](c2nc(-c3ccc4ccc(-c5ccccc5)nc4c3)c3c(N)nccn32)C1 [OSI-906]; details: top dose 2.56 µM; top dose inferred
Protocol: as §1

[5] = compound: Cc1sc2c(c1C)C(c1ccc(Cl)cc1)=N[C@@H](CC(=O)OC(C)(C)C)c1nnc(C)n1-2 [JQ1]
Protocol: as §1

[6] = compound: O=C(/C=C/c1cccc(S(=O)(=O)Nc2ccccc2)c1)NO [Belinostat]; details: top dose 20 µM; top dose inferred
Protocol: as §1

[7] = compound: Cc1ccc(C(=O)N(CCCN)[C@@H](c2nc3cc(Cl)ccc3c(=O)n2Cc2ccccc2)C(C)C)cc1 [SB-715992]; details: top dose 0.128 µM; top dose inferred
Protocol: as §1

[8] = compound: COC(=O)[C@H](CCSC)NC(=O)c1ccc(NC[C@@H](N)CS)cc1-c1ccccc1 [FTI-277]; details: top dose 1.024 µM; top dose inferred
Protocol: as §1

[9] = compound: CCOc1nc(NC(=O)Cc2cc(OC)ccc2OC)cc(N)c1C#N [JNK Inhibitor VIII]; details: top dose 10 µM; top dose inferred
Protocol: as §1

[10] = compound: CC1(C)CNc2cc(NC(=O)c3cccnc3NCc3ccncc3)ccc21 [AMG-706]; details: top dose 2 µM; top dose inferred
Protocol: as §1

[11] = compound: c1ccc2c(CCNc3ccc(Nc4ccncc4)cc3)c[nH]c2c1 [JNJ-26854165]; details: top dose 10 µM
Protocol: as §1

[12] = top dose 1 µM, screen: GDSC drug entry 1218, top dose inferred
[13] = top dose 2.56 µM, screen: GDSC drug entry 163

Cell Line	AUC [1]	pIC50 [1]	AUC [2]	pIC50 [2]	AUC [3]	pIC50 [3]	AUC [4]	pIC50 [4]	AUC [5, 12]	pIC50 [5, 12]	AUC [5, 13]	pIC50 [5, 13]	AUC [6]	pIC50 [6]	AUC [7]	pIC50 [7]	AUC [8]	pIC50 [8]	AUC [9]	pIC50 [9]	AUC [10]	pIC50 [10]	AUC [11]	pIC50 [11]
DBTRG-05MG (glioma, adherent)	0.642	8.68	0.132	> 7.70	0.978	< 4.70	0.955	< 5.59	0.974	< 6.00	0.843	5.64	0.605	5.59	0.878	< 6.89	0.98	< 5.99	0.982	< 5.00	0.976	< 5.70	0.896	< 5.00
HuO-3N1 (osteosarcoma, adherent)	0.656	8.61	0.324	7.06	0.982	< 4.70	0.859	< 5.59	0.975	< 6.00	0.961	< 5.59	0.72	5.19	0.962	< 6.89	0.96	< 5.99	0.981	< 5.00	0.942	< 5.70	0.823	5.07
KMH-2 (thyroid, adherent)	0.58	8.90	0.542	6.39	0.942	< 4.70	0.83	5.86	0.983	< 6.00	0.521	6.74	0.806	5.05	0.755	7.41	0.968	< 5.99	0.984	< 5.00	0.99	< 5.70	0.922	< 5.00
PCI-4B (head and neck, adherent)	0.381	9.43	0.022	> 7.70	0.815	4.99	0.987	< 5.59	0.976	< 6.00	0.564	6.62	0.311	6.42	0.645	7.71	0.94	< 5.99	0.96	< 5.00	0.977	< 5.70	0.788	5.39
OVTOKO (ovary, adherent)	0.882	< 7.90	0.597	6.20	0.962	< 4.70	0.896	< 5.59	0.953	< 6.00	0.323	7.35	0.528	5.82	0.916	< 6.89	0.906	< 5.99	0.791	5.23	0.919	< 5.70	0.791	5.23
Ca9-22 (head and neck, adherent)	0.418	9.32	0.055	> 7.70	0.944	< 4.70	0.965	< 5.59	0.986	< 6.00	0.453	6.92	0.258	6.57	0.619	7.78	0.918	< 5.99	0.972	< 5.00	0.977	< 5.70	0.917	< 5.00
SW13 (adrenal gland, adherent)	0.657	8.67	0.717	5.88	0.982	< 4.70	0.947	< 5.59	0.954	< 6.00	0.791	5.93	0.913	< 4.70	0.986	< 6.89	0.948	< 5.99	0.987	< 5.00	0.968	< 5.70	0.858	5.07
TT2609-C02 (thyroid, adherent)	0.682	8.58	0.029	> 7.70	0.719	5.26	0.855	5.65	0.985	< 6.00	0.568	6.60	0.37	6.27	0.776	7.26	0.97	< 5.99	0.976	< 5.00	0.959	< 5.70	0.835	5.14
PANC-04-03 (pancreas, adherent)	0.855	< 7.90	0.205	7.62	0.978	< 4.70	0.885	< 5.59	0.974	< 6.00	0.8	5.64	0.862	< 4.70	0.961	< 6.89	0.912	< 5.99	0.977	< 5.00	0.92	< 5.70	0.888	< 5.00
ECC10 (stomach, suspension)	0.799	8.20	0.18	7.48	0.819	4.92	0.811	5.84	0.562	7.03	0.617	6.47	0.587	5.66	0.928	< 6.89	0.947	< 5.99	0.982	< 5.00	0.972	< 5.70	0.865	5.02
HO-1-u-1 (head and neck, adherent)	0.495	9.12	0.034	> 7.70	0.932	< 4.70	0.982	< 5.59	0.904	< 6.00	0.912	< 5.59	0.41	6.15	0.986	< 6.89	0.988	< 5.99	0.988	< 5.00	0.987	< 5.70	0.828	5.23
KYSE-150 (oesophagus, adherent)	0.812	8.20	0.049	> 7.70	0.883	4.70	0.914	< 5.59	0.988	< 6.00	0.52	6.74	0.76	5.17	0.942	< 6.89	0.969	< 5.99	0.988	< 5.00	0.989	< 5.70	0.885	< 5.00
U-118-MG (glioma, adherent)	0.907	< 7.90	0.6	6.20	0.986	< 4.70	0.975	< 5.59	0.926	< 6.00	0.856	< 5.59	0.642	5.48	0.983	< 6.89	0.97	< 5.99	0.983	< 5.00	0.969	< 5.70	0.701	5.60
COLO-680N (oesophagus, adherent)	0.838	7.97	0.986	< 5.29	0.981	< 4.70	0.906	< 5.59	0.985	< 6.00	0.753	6.00	0.986	< 4.70	0.915	< 6.89	0.93	< 5.99	0.982	< 5.00	0.982	< 5.70	0.958	< 5.00
IHH-4 (thyroid, semi-adherent)	0.5	9.11	0.014	> 7.70	0.886	4.84	0.985	< 5.59	0.991	< 6.00	0.615	6.51	0.352	6.27	0.649	7.73	0.926	< 5.99	0.985	< 5.00	0.991	< 5.70	0.854	5.25
NCI-H28 (mesothelioma, adherent)	0.735	8.34	0.333	7.03	0.908	< 4.70	0.891	< 5.59	0.977	< 6.00	0.809	5.72	0.865	< 4.70	0.975	< 6.89	0.959	< 5.99	0.981	< 5.00	0.972	< 5.70	0.827	5.05
NCI-H1693 (lung adenocarcinoma, adherent)	0.902	< 7.90	0.106	> 7.70	0.967	< 4.70	0.949	< 5.59	0.969	< 6.00	0.727	5.97	0.598	5.57	0.975	< 6.89	0.969	< 5.99	0.93	< 5.00	0.926	< 5.70	0.738	5.34
HCT-15 (large intestine, adherent)	0.978	< 7.90	0.306	7.06	0.919	< 4.70	0.987	< 5.59	0.985	< 6.00	0.626	6.44	0.586	5.66	0.968	< 6.89	0.861	6.02	0.98	< 5.00	0.973	< 5.70	0.929	< 5.00
CAL-33 (head and neck, adherent)	0.454	9.23	0.085	> 7.70	0.975	< 4.70	0.981	< 5.59	0.966	< 6.00	0.52	6.74	0.554	5.76	0.678	7.60	0.973	< 5.99	0.927	< 5.00	0.943	< 5.70	0.851	5.11
HCC1428 (breast, adherent)	0.917	< 7.90	0.092	> 7.70	0.987	< 4.70	0.974	< 5.59	0.985	< 6.00	0.537	6.69	0.409	6.16	0.987	< 6.89	0.983	< 5.99	0.973	< 5.00	0.956	< 5.70	0.946	< 5.00
LOU-NH91 (lung squamous cell carcinoma, adherent)	0.641	8.70	0.15	7.64	0.978	< 4.70	0.923	< 5.59	0.963	< 6.00	0.824	5.77	0.501	5.90	0.949	< 6.89	0.961	< 5.99	0.966	< 5.00	0.938	< 5.70	0.906	< 5.00
RERF-LC-MS (lung adenocarcinoma, adherent)	0.61	8.80	0.225	7.31	0.932	< 4.70	0.982	< 5.59	0.968	< 6.00	0.925	< 5.59	0.455	6.03	0.933	< 6.89	0.955	< 5.99	0.986	< 5.00	0.987	< 5.70	0.821	5.22
